Experimental data published in PubChem BioAssay AID485344 (National Center for Advancing Translational Sciences (NCATS), 2010).
The campaign covered roughly 340,000 compounds. About 6,900 (2%) were called active. Cut-off read from the data, not from the text of the source: active = inhibition above about 30%; inactive = below that, where a call was filed. The entries are a selection whose mix differs from that of the whole data set. Entries without a call were filed so in the source.

molecular target: D(2) dopamine receptor (Homo sapiens) (UniProt P14416); assay: HTS Assay for Allosteric Antagonists of the Human D2 Dopamine Receptor: Primary Screen for Antagonists; conditions: HEK293 TREx D2 cells, calcium flux, dopamine EC80; at 10 µM; stronger effect = higher value; note: 0% is about no effect
UniProt P14416, sequence (P14416 whole entry, looked up): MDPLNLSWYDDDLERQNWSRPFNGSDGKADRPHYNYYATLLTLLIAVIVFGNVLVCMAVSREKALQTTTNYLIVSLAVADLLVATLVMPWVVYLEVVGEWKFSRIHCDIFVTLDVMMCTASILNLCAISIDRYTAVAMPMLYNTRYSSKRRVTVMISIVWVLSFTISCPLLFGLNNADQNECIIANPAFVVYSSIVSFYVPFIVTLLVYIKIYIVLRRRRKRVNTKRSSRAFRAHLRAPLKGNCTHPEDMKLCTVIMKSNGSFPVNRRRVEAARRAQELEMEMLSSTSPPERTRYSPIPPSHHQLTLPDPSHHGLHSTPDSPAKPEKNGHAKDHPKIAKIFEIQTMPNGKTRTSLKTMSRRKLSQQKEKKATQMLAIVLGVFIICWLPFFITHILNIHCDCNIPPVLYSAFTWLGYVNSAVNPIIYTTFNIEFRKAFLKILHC
Summary of the method: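 Antagonism is scored as inhibition of an EC80 dopamine-evoked calcium signal in a force-coupled, tetracycline-inducible HEK293 T-REx D2 line, with compound present 180 s before agonist.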

Structure (SMILES) | inhibition
COc1ccc(C2=NS(=O)(=O)N(C)C(C(=O)Nc3ccc4c(c3)OCO4)=C2)cc1 | active: 64.2%
CC(=O)Nc1cccc(C(=O)NCc2ccc3c(c2)CCN3C(=O)c2ccc(F)cc2)c1 | -13.2%
CCn1nnc2cc(C(=O)Nc3ccc(Br)cc3F)ccc21 | 2.83%
Cn1ncc2c(NCc3ccc(F)cc3)ncnc21 | -3.09%
CCOC(=O)c1c(S(=O)(=O)N2CCC(C(=O)N3CCN(c4ccc(F)cc4)CC3)CC2)c(C)n(C)c1C | 8.12%
Nc1nc(Cl)nc2c1ncn2[C@@H]1O[C@H](CO)[C@@H](O)[C@H]1O | active: 37.4%
CCOc1ccccc1N1CCN(Cc2cnc(-c3ccccc3)[nH]2)CC1 | active: 77.8%
O=c1[nH]c2ccccc2n1CCCN1CCN(C(c2ccccc2)c2ccccc2)CC1 | active: 83.8%
O=C1N(Cc2ccccc2)c2ccccc2C1(O)c1c[nH]c2ccccc12 (stereo unspecified) | 15.9%
Cc1ccc(NC(=O)C2CCCN2S(=O)(=O)c2ccc3c(c2)n(C)c(=O)c(=O)n3C)cc1C (stereo unspecified) | 17.1%
Cn1c(=O)c2c(SCC(=O)N3CCc4ccccc43)nc(-c3ccc(Cl)cc3)nc2n(C)c1=O | -19.2%
COc1ccc(C2c3c(n(C)c4ccccc34)C(=O)N2CC(=O)Nc2ccc(F)cc2)cc1 (stereo unspecified) | 3.42%
COCCNC(=O)C1=CC(c2ccc3c(c2)OCO3)=NS(=O)(=O)N1C | 6.28%
CC(C)c1ccc(CNc2n[nH]c(-c3ccco3)n2)cc1 | 0.99%
CCC(=O)N1CCc2cc(OC)c(OC)cc2C1COc1ccc2c(C)cc(=O)oc2c1 (stereo unspecified) | -6.31%
Cn1cc(S(=O)(=O)N2CCOCC2)cc1C(=O)Nc1cccc(C#N)c1 | 1.46%
CC(C)Oc1ccc(CNC(=O)Cn2nc(N3CCN(c4ccccc4)CC3)ccc2=O)cc1 | 1.56%
Cc1ccc(C(=O)c2oc3ccccc3c2NC(=O)Cc2ccccc2)cc1 | -2.97%
CCCCn1c(=N)n(CCOc2ccccc2OC)c2ccccc21 | 3.82%
Cc1ccc(CSc2nc(-c3ccccc3C)nc3c2Cc2c(CO)cnc(C)c2O3)cc1 | -2.61%
CCOc1ccc(-c2nc(SCC(=O)Nc3cc(F)ccc3F)n3[nH]c(=O)cc3n2)cc1 | 0.617%
COc1ccc(-c2ccc(=O)n(CC(=O)Nc3ccc(OC)c(OC)c3)n2)cc1 | 14.9%
O=C(Nc1ccc(N2CCOCC2)c(Cl)c1)c1ccc(S(=O)(=O)N2CCOCC2)cc1 | active: 34.4%
COc1cc(OC)c(OC)cc1CNCCCSc1nnnn1C | -4.98%

Structure (SMILES) | inhibition
CCc1ccc(OCc2cc(=O)n3cc(C)sc3n2)cc1 | 8.29%
CCOc1ccc2oc(=O)cc(CN3CCN(c4ccccc4OC)CC3)c2c1 | -8.38%
COc1ccc(C(=O)N(Cc2cc(OC)c(OC)c(OC)c2)C2CCS(=O)(=O)C2)cc1Cl (stereo unspecified) | 17.4%
O=C(CN1C(=O)COc2ccc(S(=O)(=O)N3CCOCC3)cc21)N1CCN(c2ccccc2F)CC1 | 6.86%
CCc1cccc(NC(=O)c2c(C)oc3nc(C)nc(N4CCCC4)c23)c1 | 9.3%
Cc1ccc(NC(=O)C(=O)NCC2(c3ccccc3)CCCC2)cc1C | 8.38%
Cc1cc([N+](=O)[O-])ccc1NC(=O)/C=C/c1cccs1 | active: 43.8%
CCCOc1ccc(CNC(=O)CN2C(=O)c3cccnc3Oc3ccc(C)cc32)cc1 | -2.76%
COC(=O)C1CCN(c2csc3ccc(Cl)cc3c2=O)CC1 | 1.43%
O=C(NCCCO)c1nn(-c2ccc(Cl)cc2)nc1CO | -7.24%
COc1cc(-c2nc3ccc(Cl)cn3c2Nc2ccc3c(c2)OCCO3)ccc1O | 8.99%
Cc1cccc(CSc2nnc3[nH]c(=O)cc(-c4ccccc4)n23)c1 | -10.6%
O=C(c1ccc2c(c1)N(Cc1ccc(Cl)cc1)C(=O)c1ccccc1S2(=O)=O)N1CCN(c2ccccn2)CC1 | 10.5%
O=C(Nc1cc(Cl)cc(Cl)c1)c1ccc(F)c(S(=O)(=O)N2CCN(c3ccccc3F)CC2)c1 | -10.8%
Cc1cc(NC(=O)C2CCCN(S(=O)(=O)c3cccc4nsnc34)C2)ccc1Br (stereo unspecified) | -2.82%
CCOc1ccc(NC(=O)N2CCC(N3CCCCC3)CC2)cc1 | -9.49%
Cc1ccc(CN2COc3c(Cl)cc4c(-c5ccccc5)cc(=O)oc4c3C2)cc1 | -6.74%
Cc1ccc(NC(=O)COc2ccc3oc4c(c3c2)CCCC4)cc1C | 8.65%
CCOc1ccccc1NC(=O)c1c(NC(=O)Cc2ccc(OC)cc2)sc2c1CCC2 | -12.1%
CCc1cccc(NC(=O)c2ccc3c(c2)c(C)c(C)n3Cc2ccc(F)cc2)c1 | -2.7%
Cc1ccc(OCC(=O)Nc2cccc(C(=O)OCc3cc(=O)n4c(C)csc4n3)c2)cc1 | 16.3%
Cn1c(C(=O)Nc2ccc(OC(F)(F)F)cc2)cc2c(=O)n3ccccc3nc21 | 10.6%
COc1ccccc1CNC(=O)c1nnn(CC(=O)Nc2c(C)cccc2C)c1N | -3.47%
Cc1ccccc1OCC(=O)OCc1cc(=O)n2nc(-c3cccs3)sc2n1 | -7.48%

Structure (SMILES) | inhibition
COc1ccccc1N1CCN(CC(=O)N2N=CCC2c2ccccc2)CC1 (stereo unspecified) | active: 41.7%
Cc1ccc(CNC(=O)CN2N=C(c3ccccc3)CCC2=O)cc1 | 11.7%
Cc1ccc(N(CC(=O)Nc2ccc(C)c(Cl)c2)S(=O)(=O)c2cccs2)cc1 | 0.731%
CC1=C(C(=O)OC2CCCC2)C(c2ccccc2C(F)(F)F)CC(=O)N1 (stereo unspecified) | -0.62%
O=S(=O)(c1ccc(-c2cnc(C3CC3)o2)cc1)N1CCN(c2ccccc2)CC1 | 19.6%
CCOc1ccccc1NC(=O)Cn1c(=O)n(C(C)C)c(=O)c2oc3ccccc3c21 | -5.43%
Cc1cccc(CSc2ncccc2C(=O)O)c1 | -14.8%
COc1ccc(-n2c(=O)c3ccc(C(=O)NCc4ccc(C)cc4)cc3n(Cc3ccc(Cl)cc3)c2=O)cc1 | 1.14%
COc1ccc(-n2nc3c(N4CCCC(C(=O)NCCc5ccccc5C)C4)nnc(C)c3c2C)cc1 (stereo unspecified) | -19.9%
COCCn1c(C)cc(O)c(C(c2ccc(F)cc2)N2CCC(C)CC2)c1=O (stereo unspecified) | -1.9%
COc1ccc(CCNC(=O)c2ccc(Cn3c(=O)c4ccccc4n(Cc4cccc(F)c4)c3=O)cc2)cc1OC | 7.22%
CCc1ccc(NC(=O)C2CCCN2S(=O)(=O)c2ccc3c(c2)CCCC(=O)N3)cc1 (stereo unspecified) | -6.03%
CCn1nc(CC(=O)Nc2ccc(-n3cnnn3)c(OC)c2)c2ccccc2c1=O | active: 34.6%
COc1ccc(C(C)=O)cc1CC(=O)Nc1cccc(S(=O)(=O)N2CCOCC2)c1 | active: 32.8%
Cc1cc2c(cc1NS(=O)(=O)c1cccc(C#N)c1)n(C)c(=O)c(=O)n2C | 10%
CCc1cccc(C)c1NC(=O)Cn1nnc(-c2nc(-c3ccccc3F)no2)c1N | -6.35%
Cn1cc(S(=O)(=O)N2CCCCCC2)cc1C(=O)Nc1ccc(Cl)c(C(F)(F)F)c1 | -0.747%
CC1=Nc2cc(C(=O)N3CCC(C)CC3)ccc2Sc2ccc(Cl)cc21 | 13.2%
CCOc1ccc(OCCOCCN2CCc3ccccc3C2)cc1 | active: 68.4%
CCCOc1ccc(C2C(=O)N(C3CCC(C)CC3)CC(=O)N2Cc2cccc(OC)c2)cc1OC (stereo unspecified) | 9.61%
C[C@@H]1C2CC(C/C2=N\NC(=O)c2ccncc2)C1(C)C (stereo partly specified) | active: 35.6%
CCOC(=O)C1CCCN(CC(=O)Nc2cc(C)c3c(=O)oc4ccccc4c3n2)C1 (stereo unspecified) | -6.41%
Cc1cc(C)cc(NC(=O)C2CCN(S(=O)(=O)c3cn(C)cn3)CC2)c1 | 16.1%
CC(C(=O)Nc1cc(Cl)cc(Cl)c1)N1CCCC1 (stereo unspecified) | active: 89.1%

Structure (SMILES) | inhibition
O=c1oc2ccc3ccccc3c2cc1-c1nnc(Nc2ccccc2F)s1 | 13.4%
COc1ccc(-c2n[nH]c3c2cnc2ccc(F)cc23)cc1 | -15.3%
CCCSc1nc(-c2ccccc2)[nH]c1S(=O)(=O)c1ccc(C)cc1 | -13.4%
COc1ccc(-c2cc3ccc(O)c(CN4CCCC4)c3oc2=O)cc1 | -7.02%
Cc1ccc(-c2c(C(=O)NCCc3ccccc3)oc(=O)c3ccccc23)cc1 | -5.8%
CN(C)/C=N/c1ncc(C(=O)c2ccc(Cl)cc2)s1 | active: 56.6%
COc1ccc2c(c1)c1c(c(=O)n(Cc3ccccc3)c(=O)n1Cc1cccc(Cl)c1)n2C | 6.03%
Cc1cc(C)c2oc(-c3ccc(Cl)c(NC(=O)c4cccs4)c3)nc2c1 | -9.75%
CC(=O)N1CCc2cc(S(=O)(=O)NC(Cc3ccccc3)C(=O)Nc3cc(C)ccc3C)ccc21 (stereo unspecified) | -8.53%
CCOc1ccc(CNC(=O)c2nn(-c3ccc(OC)cc3)c(=O)c3c2c2ccccc2n3C)cc1 | -0.727%
NC(=O)CSc1ncc2c(n1)-c1ccccc1N(Cc1ccc(F)cc1)S2(=O)=O | -15%
CC1=C(c2ccc(C)cc2)S(=O)(=O)N(Cc2ccc(C(=O)Nc3ccc(C)c(F)c3)cc2)C1=O | 3.59%
CCOc1ccc(C(=O)Nc2ccc3nc(SCC(=O)N4CCc5ccccc54)sc3c2)cc1 | 9.47%
Cc1ccc(-c2ccc(CCC(=O)O)n2-c2ccc(C(N)=O)cc2)cc1 | -4.42%
CCOc1ccc2nc(NC(=O)Nc3ccccc3)sc2c1 | active: 31.6%
Cc1oc(-c2cccs2)nc1CN1CCC(CO)(CCOc2ccccc2)CC1 | active: 54.1%
O=C(NCc1ccccc1)c1cccn1-c1nnc(N2CCCC2)s1 | -8.72%
CN1C(=O)c2ccccc2Sc2ccc(NC(=O)N3CCN(c4ccccc4)CC3)cc21 | 27.3%
COc1ccc(-n2nnnc2C2CCN(S(=O)(=O)c3ccc(C)cc3)CC2)cc1 | -23.3%
COc1cc2c(cc1OC)C(COc1ccc3c(C)cc(=O)oc3c1)N(C(=O)c1ccccc1C)CC2 (stereo unspecified) | 16.7%
CC(NCc1ccc2c(c1)OCO2)C(=O)N1CCc2ccccc21 (stereo unspecified) | active: 43.6%
COc1ccc(OC)c(-n2nnc(-c3nc(-c4cc(OC)c(OC)c(OC)c4)no3)c2C)c1 | 11.3%
COc1ccc(-c2nc3ccccc3n3c(-c4ccccc4)c4c(=O)n(C)c(=O)n(C)c4c23)cc1OC | 9.67%
O=c1oc2c3c(ccc2c2ccccc12)OCN(Cc1ccc(Cl)cc1)C3 | -0.537%
